Screen size: about 310,000 compounds; about 14,000 (4.5%) showed an effect of 50% or more. The effect is printed as a negative number. Some of the results follow.
target: human ether-à-go-go-related gene (hERG) potassium channel (human, UniProt Q12809); experiment: primary screen, population patch clamp on CHO cells stably expressing hERG
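Also: peak tail current of the secondary pulse compared with the same well before compound.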

Chain of human ether-à-go-go-related gene (hERG) potassium channel (Q12809 whole entry, looked up): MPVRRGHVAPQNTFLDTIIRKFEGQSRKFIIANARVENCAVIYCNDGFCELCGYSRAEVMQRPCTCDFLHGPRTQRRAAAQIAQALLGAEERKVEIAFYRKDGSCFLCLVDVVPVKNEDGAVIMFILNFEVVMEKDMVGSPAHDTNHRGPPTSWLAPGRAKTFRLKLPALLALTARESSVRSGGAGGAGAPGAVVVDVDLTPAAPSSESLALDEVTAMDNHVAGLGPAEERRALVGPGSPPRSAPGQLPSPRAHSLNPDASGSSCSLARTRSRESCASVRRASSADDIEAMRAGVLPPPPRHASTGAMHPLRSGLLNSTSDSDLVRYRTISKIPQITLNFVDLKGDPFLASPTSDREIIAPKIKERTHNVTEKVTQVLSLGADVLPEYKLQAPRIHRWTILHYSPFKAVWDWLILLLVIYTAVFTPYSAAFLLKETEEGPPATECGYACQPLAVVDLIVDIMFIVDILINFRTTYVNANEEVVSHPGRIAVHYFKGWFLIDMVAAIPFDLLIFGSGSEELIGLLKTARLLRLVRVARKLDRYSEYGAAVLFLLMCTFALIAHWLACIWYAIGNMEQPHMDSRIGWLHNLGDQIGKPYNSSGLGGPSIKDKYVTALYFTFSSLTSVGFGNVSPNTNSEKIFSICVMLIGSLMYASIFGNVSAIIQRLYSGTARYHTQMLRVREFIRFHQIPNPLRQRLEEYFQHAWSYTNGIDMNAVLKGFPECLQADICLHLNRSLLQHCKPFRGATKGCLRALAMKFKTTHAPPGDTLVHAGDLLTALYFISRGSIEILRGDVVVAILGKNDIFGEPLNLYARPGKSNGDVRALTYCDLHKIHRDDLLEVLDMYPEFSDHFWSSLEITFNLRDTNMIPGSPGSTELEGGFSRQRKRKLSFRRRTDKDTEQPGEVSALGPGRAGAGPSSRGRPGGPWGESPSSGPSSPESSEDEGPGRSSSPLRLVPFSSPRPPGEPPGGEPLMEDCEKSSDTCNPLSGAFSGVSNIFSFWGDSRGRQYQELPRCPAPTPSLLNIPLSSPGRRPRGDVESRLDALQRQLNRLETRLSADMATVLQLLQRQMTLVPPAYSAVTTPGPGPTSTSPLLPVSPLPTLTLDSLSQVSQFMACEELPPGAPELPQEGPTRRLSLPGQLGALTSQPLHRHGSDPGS

Compared with CC(C)CNC(=O)c1ccc2c(c1)C(=O)N(Cc1ccco1)C2=O, COC(=O)c1cccc(NC(=O)c2ccc3c(c2)C(=O)N(CC2CCCO2)C3=O)c1 (stereo not drawn) is lower in “hERG current change (%, negative = inhibition) at 10uM” value: -13.2% for the first, -24.3% for the second.

Compared with O=C1CC(c2ccc(Cl)cc2)CC(O)=C1C=NCCO (stereo not drawn), CCN(CC)S(=O)(=O)c1ccc(N/N=C/c2ccc(O)cc2O)nc1 is lower in “hERG current change (%, negative = inhibition) at 10uM” value: 7.66% for the first, 4.31% for the second.

Compared with CCOC(=O)C1CCN(C(=O)c2sc3nc(-c4ccc(F)cc4)cn3c2C)CC1, Cc1nn(-c2ccc(F)cc2)c2sc(C(=O)N3CCCCCC3)cc12 is higher in “hERG current change (%, negative = inhibition) at 10uM” value: -60.5% for the first, -7.19% for the second.

Going from CCC(C)(C)n1nnnc1C(C(C)C)N1CCC(C(N)=O)CC1 (stereo not drawn) to O=C(CSc1nnnn1C1CCCC1)N1CCN(C(=O)c2ccco2)CC1, the “hERG current change (%, negative = inhibition) at 10uM” value falls from 10.4% to -13.5%.

First: CCOC(=O)c1cc(NC(=O)SCC(=O)O)c(C)nc1C
Second: CCOC(=O)c1cnc(SCC(=O)c2ccccc2)nc1N
The “hERG current change (%, negative = inhibition) at 10uM” value of the first is lower: -23% for the first, 15.9% for the second.

First: CN1CCCN(C(=O)c2cc(-c3cccc4ccccc34)nc3ccccc23)CC1.Cl
Second: O=C(NNC(=O)c1cc(-c2ccc(Cl)c(Cl)c2)nc2ccccc12)Nc1ccccc1
The “hERG current change (%, negative = inhibition) at 10uM” value of the first is lower: -59.4% for the first, -1.4% for the second.

Compared with Cc1ccc(S(=O)(=O)NCCCCC(NC(=O)OC(C)(C)C)C(=O)O)cc1.c1ccc(Nc2ccccc2)cc1 (stereo not drawn), CN(C)CCCNCC(=O)NN(c1ccccc1)c1ccccc1.O=C(O)C(=O)O is lower in “hERG current change (%, negative = inhibition) at 10uM” value: 11.7% for the first, -17.4% for the second.

Compared with O=C1CSC(=Nc2cccc([N+](=O)[O-])c2)N1, O=[N+]([O-])c1ncccc1OCc1ccc(Cl)c(Cl)c1 is higher in “hERG current change (%, negative = inhibition) at 10uM” value: 17.1% for the first, 20.9% for the second.

First: Cl.O=C(OCCN1CCOCC1)C1(c2ccccc2)CCCC1
Second: COc1ccccc1OCC(O)CN1CCOCC1 (stereo not drawn)
The “hERG current change (%, negative = inhibition) at 10uM” value of the first is higher: 16.9% for the first, 15.2% for the second.

Going from CN(CCNC(=O)C1CCN(S(=O)(=O)c2cnc[nH]2)CC1)Cc1ccccc1 to Cn1cc(S(=O)(=O)N2CCC(Cc3ccccc3)CC2)c(=O)n(C)c1=O, the “hERG current change (%, negative = inhibition) at 10uM” value falls from 12.6% to -11.5%.

First: CS(=O)(=O)N1CCN(c2ccc([N+](=O)[O-])c(NCc3ccc(Cl)cc3)c2)CC1
Second: O=C(Nc1nnc(C2CC2)s1)c1cc(S(=O)(=O)N2CCN(c3ccccc3)CC2)ccc1Cl
The “hERG current change (%, negative = inhibition) at 10uM” value of the first is higher: 2.17% for the first, -0.722% for the second.

First: COc1cc2oc3ccccc3c(=O)c2cc1OC
Second: COc1ccc(C(=O)Nc2nc3cc(OC)c(OC)cc3c(=O)[nH]2)cc1
The “hERG current change (%, negative = inhibition) at 10uM” value of the first is lower: -1.98% for the first, 8.77% for the second.

Going from O=C(Nc1ccc(F)cc1)c1ccc(CSc2ccccc2)o1 to O=C(Nc1ccc(NC(=O)c2cccnc2)cc1)c1ccccc1, the “hERG current change (%, negative = inhibition) at 10uM” value rises from -6.8% to -6.08%.

Compared with COc1ccc(OC)c(C2C(C(=O)c3cccs3)=C(O)C(=O)N2c2cc(C)on2)c1 (stereo not drawn), COc1ccc(C2N=C(N)N=C(N)N2c2ccccc2OC)cc1OC.Cl (stereo not drawn) is lower in “hERG current change (%, negative = inhibition) at 10uM” value: 18.2% for the first, -11.7% for the second.

Compared with CN1c2ccccc2C2(C)CCCC3=Cc4cccc([N+](=O)[O-])c4OC312 (stereo not drawn), O=C(Nc1ccc2c(c1)OCCO2)c1ccccc1 is higher in “hERG current change (%, negative = inhibition) at 10uM” value: 1.57% for the first, 6.91% for the second.

First: CN(CC(=O)Nc1ccccc1C(F)(F)F)C(=O)COc1cccnc1[N+](=O)[O-]
Second: FC(F)(F)c1cccc(NC(=S)NCc2ccccn2)c1
The “hERG current change (%, negative = inhibition) at 10uM” value of the first is higher: 9.5% for the first, 2.89% for the second.

Compared with CN(CC(=O)Nc1ccc(Cl)cc1)C(=O)c1cc(-c2cccs2)nn1-c1ccccc1, S=C(NCc1ccccc1)Nc1ccc(Cl)cc1 is lower in “hERG current change (%, negative = inhibition) at 10uM” value: -5.4% for the first, -25.1% for the second.

Compared with O=C1C2C3C=CC(C4CC34)C2C(=O)N1/N=C/c1ccc(-c2ccc([N+](=O)[O-])cc2)o1 (stereo not drawn), O=c1cc(-c2ccc(O)cc2)oc2cc(O)c(C3OC(CO)C(O)C(O)C3O)c(O)c12 (stereo not drawn) is lower in “hERG current change (%, negative = inhibition) at 10uM” value: 16.2% for the first, 10.4% for the second.

First: Cc1ccc(OCc2nnc(SCC(=O)c3ccccc3)n2Cc2ccco2)cc1
Second: COc1ccc(C(=O)Cn2nnc(-c3ccccc3NC(=O)c3ccco3)n2)cc1
The “hERG current change (%, negative = inhibition) at 10uM” value of the first is lower: -47.1% for the first, 8.76% for the second.

Going from CCc1ccc(OCC(=O)Nc2nnc(-c3ccco3)s2)cc1 to COc1ccc(CC(=O)NNC(=O)c2cnccn2)cc1, the “hERG current change (%, negative = inhibition) at 10uM” value rises from 11.5% to 13.6%.

Compared with O=C(c1ccc(Cl)cc1[N+](=O)[O-])N1CCOCC1, O=C(N/C(=C/c1cccnc1)C(=O)N1CCOCC1)c1ccco1 is higher in “hERG current change (%, negative = inhibition) at 10uM” value: -13.9% for the first, 6.59% for the second.

Going from Cc1ccccc1NC(=O)CSc1nnc2ccc(-c3cccnc3)nn12 to CCOC(=O)c1cc(-c2cccnc2)nn1-c1ccccn1, the “hERG current change (%, negative = inhibition) at 10uM” value rises from -33% to 0.506%.

Compared with Cc1ccc(C23CC4CC(CC(C(=O)NCC(=O)O)(C4)C2)C3)cc1, Cc1ccc(-c2c[n+](CC(=O)Nc3c(C)cccc3C)c3n2CCC3)cc1.[Cl-] is higher in “hERG current change (%, negative = inhibition) at 10uM” value: 4.26% for the first, 14.1% for the second.

Compared with O=C(CSCc1c(Cl)cccc1Cl)NN1C(=O)c2ccccc2C1=O, COC(=O)C1=C(C(=O)OC)C2(OC1c1cccc(F)c1)C(=O)c1ccccc1C2=O (stereo not drawn) is higher in “hERG current change (%, negative = inhibition) at 10uM” value: -21.4% for the first, 6.43% for the second.

Compared with C=CCN(CC=C)C(=O)C1CCN(Cc2ccc(OCc3ccccc3)cc2)CC1.O=C(O)C(=O)O, CCOC(=O)C1CCCN(CCCc2ccccc2)C1 (stereo not drawn) is higher in “hERG current change (%, negative = inhibition) at 10uM” value: -68% for the first, -39.1% for the second.

Compared with CCOCCCNC(=O)N[C@@H](Cc1ccccc1)C(=O)OC, CCCCN1CCNC[C@@H]1Cc1ccccc1 is lower in “hERG current change (%, negative = inhibition) at 10uM” value: 15.3% for the first, 10.1% for the second.

First: COc1cccc2[nH]c(C(=O)NCc3ccccc3)cc12.Cl
Second: COc1ccccc1NC(=O)Nc1ccc(NC(=O)c2ccccc2O)cc1
The “hERG current change (%, negative = inhibition) at 10uM” value of the first is lower: -25.5% for the first, 0.427% for the second.

Compared with Cc1nc(NCCc2ccc(O)cc2)c2nnn(Cc3ccccc3)c2n1, O=C(O)c1cccc(S(=O)(=O)Nc2ccc(O)cc2Sc2nc3ccccc3s2)c1 is higher in “hERG current change (%, negative = inhibition) at 10uM” value: 0.0141% for the first, 28.5% for the second.

Going from CCN(C(=O)c1cc(S(=O)(=O)N2CCOCC2)cn1C)c1cccc(C)c1 to CC(C)(C)Nc1nc(SCC(=O)Nc2ccccc2)nc(N2CCOCC2)n1, the “hERG current change (%, negative = inhibition) at 10uM” value rises from -30.8% to 8.08%.

Compared with COc1cc(OC)cc(C(=O)N2c3ccc(F)cc3CCC2C)c1 (stereo not drawn), CCOc1ccc(N(CC(=O)Nc2ccc(OC)cc2)S(C)(=O)=O)cc1 is higher in “hERG current change (%, negative = inhibition) at 10uM” value: -15.4% for the first, 3.39% for the second.

Compared with O=C(c1ccccc1)c1ccc(N=Nc2c(O)[nH]c(=O)[nH]c2=O)cc1, O=C(OCCc1cc2ccccc2c(=O)o1)c1ccccc1C(F)(F)F is lower in “hERG current change (%, negative = inhibition) at 10uM” value: 1.15% for the first, -0.264% for the second.

First: O=C(Nc1ccc2nc3n(c(=O)c2c1)CCCCC3)c1cc([N+](=O)[O-])ccc1F
Second: O=C(CN1C(=O)NC2(CCCC2)C1=O)Nc1nc2c(F)cc(F)cc2s1
The “hERG current change (%, negative = inhibition) at 10uM” value of the first is lower: -36.9% for the first, -17.1% for the second.

Compared with O=C(Cc1cccs1)Nc1ccc(F)c(F)c1, CC(=O)c1cccc(NC(=O)Nc2ccc3c(c2)OCO3)c1 is lower in “hERG current change (%, negative = inhibition) at 10uM” value: 14% for the first, 7.14% for the second.

Compared with CCc1cc(C)cc(OCCNC(=O)c2ncn[nH]2)c1, CN(C)CCCNc1ncnc2scc(-c3ccccc3)c12.O=C(O)C(=O)O is lower in “hERG current change (%, negative = inhibition) at 10uM” value: 13.3% for the first, -27.9% for the second.

Going from O=[N+]([O-])c1cc(C(F)(F)F)ccc1NCCc1ccncc1 to CCC1=NN(C(=O)c2cccnc2)C(O)(C(F)(F)F)C1 (stereo not drawn), the “hERG current change (%, negative = inhibition) at 10uM” value rises from -4.62% to 3.08%.

Compared with O=C(Cc1ccc(F)cc1)N1CCC(N2CCC(C(=O)N3CCOCC3)CC2)CC1, OCCC1CN(C2CCN(c3ccccc3)CC2)CCN1Cc1ccc(F)c(F)c1 (stereo not drawn) is lower in “hERG current change (%, negative = inhibition) at 10uM” value: 9.76% for the first, -71.2% for the second.

Compared with C=CCN(C(=O)CNC(=O)c1cccs1)C(C(=O)NC(C)(C)C)c1ccccc1 (stereo not drawn), O=C(NCC(c1cccnc1)N1CCOCC1)Nc1ccccc1 (stereo not drawn) is higher in “hERG current change (%, negative = inhibition) at 10uM” value: 6.11% for the first, 12.4% for the second.

Going from O=c1cccc2n1C[C@@H]1CNC[C@H]2C1 to COc1ccc(Cl)cc1NC(=O)CN1CCCCCC1, the “hERG current change (%, negative = inhibition) at 10uM” value falls from -6.53% to -8.36%.

Going from COc1ccc(Cl)cc1NC(=O)Nc1ccccc1C(N)=O to COc1ccccc1NC(=O)N1CCN(c2ccc3nnc(-c4ccc(F)cc4)n3n2)CC1, the “hERG current change (%, negative = inhibition) at 10uM” value falls from 22.2% to -68.9%.

Compared with CC1CCCN1CC#CC(O)(c1ccccc1)c1ccccc1.Cl (stereo not drawn), Cn1cc(CN2CCC(n3nccc3NC(=O)c3ccccc3Cl)CC2)c2ccccc21 is lower in “hERG current change (%, negative = inhibition) at 10uM” value: -60.7% for the first, -68.6% for the second.

Compared with C=CCNCc1ccc(C(=O)NCCCCCCC)cc1[N+](=O)[O-], NS(=O)(=O)c1ccc(NC(=S)NC(=O)c2cccnc2)cc1 is higher in “hERG current change (%, negative = inhibition) at 10uM” value: -48.9% for the first, 14.9% for the second.

Going from CCOC(=O)c1ccc(NC(=O)COc2ccc(S(=O)(=O)N3CCCC3)cc2)cc1 to CCOC(=O)C(=CNc1ccc(C#N)cc1)C(=O)OCC, the “hERG current change (%, negative = inhibition) at 10uM” value falls from -10.3% to -45.3%.

First: COC(=O)C1=CO[C@@H](OC2OC(CO)C(O)C(O)C2O)[C@@H]2[C@@H](C)[C@@H](O)C[C@H]12 (stereo partly drawn)
Second: O=C(CSc1ccc(Cl)cc1)Nc1cccc(-c2nnc(-c3ccco3)o2)c1
The “hERG current change (%, negative = inhibition) at 10uM” value of the first is lower: 5.74% for the first, 9.64% for the second.

Cc1cccnc1NC(=S)Nc1ccc(Cl)c(Cl)c1 was tested, and the “hERG current change (%, negative = inhibition) at 10uM” value was 5.76%.
